Measured values published in the RNAGym collection of RNA variant scans (doi:10.7554/elife.90254).
The source gives no read counts; variants with many changes may rest on few reads.

B1: OR4K15 (parent)
chain: GUUAACGGUCAUAGGCCAUGGAAACUAGGAGCACCAUUUCGCUGCCAGUGAAGAAAUGAACAAAGAAAAUCUGGGCCAGGCAGGCAUCAAAAGAAAUAGUCUUGCGCUCAACCAGAAAGUCUGUAAUCAUUUUAAGGGUA

Variants of: B1
Assay: self-cleavage, relative activity (ratio to wild type); higher = more cleavage; in vitro, sequencing; the parent is a self-cleaving ribozyme

Variant | self-cleavage
G1A A24G A62G | 2.04
U2C A56G A69G | 1.39
U2C A90G U122C | 1.14
U2C U19C G29U U43A A78G A95G U130C | 0.26
U2C A52G U72C U87C A118G | 0.02
U2C A11G A67G | 0.74
U2C A27G A30G A118G | 0.18
U2C U49A A51G A78U U100C | 0.94
U2C A11C U43C A82U A110U A118G | 0.05
U2A A56U A116C | 0.09
U2A U12C A27G A116U | 0.66
G1U A67G A96U A140G | 1.72
U2C U49A U87C U108A | 0.06
U2C U9A C46A A67G | 0.98
G1U A111G G115A | 0
U2C G58A A116G | 0.19
U2C A52G A86U G119A | 2.54
G1A G8A U39C U108C A140G | 0.02
U2C A66G G80U U131C | 0.08
G1A A5G A67G A116U | 0.39
U2G U3C U49C C71A | 0.9

Variant | self-cleavage
U2C A22G A110U | 0.86
G1A A110G U139C | 0.36
U2C G20U A47G | 1.21
U2A C6U A36U A59G A63G | 1.41
U2A A23G U70C G84A | 1.26
U2C C81U A90G A116U | 0.03
U2C A24U U39C A51G A60G A95G A135C | 1.55
U2C A24G A59G A66G U122C | 0.88
U2A U57A U87G | 0.36
U2C U9C U37C A62G A67G A96G A111U U120C | 0.04
U2C G14A C40U A67G A96G | 0.97
U2C A54G A78G A118G | 0.2
U2C G83U A94G C105U | 0.05
U2C A13U A18G A51G A64G | 1.36
U2C A91U U131C | 1.11
U2C A36G G75A | 0.21
U2C U3C U19C A62U A68G | 0.55
G1A A95U A118G | 1.47
U2C U38C A52G | 1.4
U2A U49C A59G | 1.56
U2C U9C A110G | 0.38

Variant | self-cleavage
U2C U12C A52G | 0.98
U2C A69G A118G | 0.25
U2C A91G A92U A126G | 1.54
U2C A33G U38C A96G | 0.93
U2A A51G A89G A116U U122C A134G | 0.14
U2C A4G A47G A91G A95G | 0.39
G1A U37C A64G A92G U100C | 2.2
U2A U12A A62G A111G | 0.11
U2A U39C U49C A89G G137A | 1.1
U2C G8A A11G | 1.14
U2A A18U U87A U97C U139C | 0.79
U2C G73A A96G U130C | 0.09
G1A C35A A89G | 1.74
U2C A54G U70C A95G | 0.88
U2C A13U A33G A51G U103C A134G | 0.65
U2C A96G U130C U132C | 0.92
U2A A52U U72A | 0.74
G1A A60U A69C U103C | 1.2
U2C A68G U100C | 1.88
U2C A33G A55U A59G A69U | 0.76
U2G C77A A114G | 0.4

Variant | self-cleavage
U2C U43C A118U | 0.33
U2C A33U U39A U122C | 1.51
G1A A23U A33U G41C A82G U87A A89G U122C | 0.4
U2C A111G U139C | 0.02
U2A A33G U38C C121A | 1.61
U2C U57C G74A A78U C88G U131C G137A | 0.01
U2C A36G A78G U102A | 0.1
U2C U57C A69G U120C | 0.71
U2C U38C A86G U122C | 0.93
U2C A11G A36C U38G | 1.65
U2C A68G U108C | 0.03
G1A A30G U87C | 1.62
U2C C101A C112U | 0.02
U2A U19C A116G | 0.93
U2G U9C U38C U87C | 0.92
U2C U12C A24C A68G | 1.05
U2C A36U U39A A52G A67G A68G | 0.97
U2C A18G U39C U100A | 1.35
U2A U43C A54G A63G | 1.65
U2C C61U A117G | 0.31
